# Assay results from PubChem BioAssay AID1345083 (National Center for Advancing Translational Sciences (NCATS), 2018).
# The whole screen tested about 94,000 compounds, of which about 6,200 (6.6%) were called active. This list was built around the results that the source calls inconclusive (neither active nor inactive); the mix of calls is not that of the screen. Calls follow the shape of the dose curve; as a rule, active = well fitted inhibition curve with a large enough effect; inconclusive = small, poorly fitted or top-dose-only effect; inactive = flat fitted curve, though single readings scatter. Potencies beside an inconclusive call are fits to weak or partial responses and may not hold up.
# Experiment: Cytotoxic Profiling in HEK 293 Cell Line of Diverse Libraries Using Quantitative High-Throughput Screening; also: nearly all actives have a fitted effect of over 60% in size
# Details: HEK 293 viability, ATP luminescence (CellTiter-Glo), 48-72 h; activity change, negative = cytotoxicity: at 115 µM (top of the series) unless noted; series mostly up to 115 µM
# Summary of the method: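 Pintool-delivered compounds were incubated with HEK 293 cells (250 cells/well) at 37 degree Celsius for 48 or 72 hr. ATP-dependent luminescence (CellTiter-Glo) then reported remaining viable cells.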
# % is scaled to controls: 0 for no effect and ±100 for the full control effect; potency is read from the fitted curve at half-maximal effect; tags tell the direction and shape of the fitted curve.
Structure (SMILES),"activity change, negative = cytotoxicity",Potency,outcome
O=C(CN1CC2CC(C1)[C@H]1CCCC(=O)N1C2)N1CCN(c2cccc(Cl)c2)CC1 (stereo not given in full),inactive: 11.5%,,
O=C(NCc1cccc(Cl)c1)C1CCCN1c1nccc(Nc2ccccc2F)n1 (stereo not given),,"inconclusive: 50.1 µM [inhibitor, partial curve, poor fit]",
Cc1cnc(C2CCC2)n1CC1CCCN(C(=O)CC2CCCCC2)C1 (stereo not given),,"inconclusive: 50.1 µM [inhibitor, partial curve, poor fit]",
CC(C)Oc1ccc(CNC(=O)c2cc3n(n2)CC(c2ccc(Cl)cc2)OC3)cc1 (stereo not given),,"inconclusive: 50.1 µM [inhibitor, partial curve, poor fit]",
Cc1ccc2nc(C3CCN(c4cc(C5CC(O)C5)ncn4)CC3)[nH]c2c1 (stereo not given),,"inconclusive: 50.1 µM [inhibitor, partial curve, poor fit]",
O=C(Nc1ccc(Br)cc1)c1cnc(-c2ccc(F)cc2)nc1-c1ccncc1,,"inconclusive: 20 µM [inhibitor, full curve, poor fit]",
COc1cc(-c2ccnc3nc(C4CCC4)nn23)cc(OC)c1OC,,"inconclusive: 56.2 µM [inhibitor, partial curve, poor fit]",
COc1cccc(CC(=O)N2CCC(N3C(=O)c4c(c(C)nn4-c4ccccc4)C3C)CC2)c1 (stereo not given),,"inconclusive: 50.1 µM [inhibitor, partial curve, poor fit]",
O=C(NCc1ccc(Cl)cc1)[C@@H]1Cc2nc[nH]c2CN1Cc1ccc(Cl)cc1,,active: 31.6 µM,
COCCNC(=O)c1nc2sccn2c1-c1ccc(C)cc1,,"inconclusive: 100 µM [inhibitor, partial curve, poor fit]",
C#CCNC(=O)C1CCCN(c2nccc(Nc3ccc(C)cc3)n2)C1 (stereo not given),,"inconclusive: 44.7 µM [inhibitor, partial curve, poor fit]",
CCOCCCNC(=O)N1CC(Oc2cccc(-c3nc(C)no3)c2)C1,inactive: 8.86%,,
CC(=O)c1ccc(N2CCN(C(=O)c3cc4n(n3)CC(c3ccc(Cl)cc3)OC4)CC2)cc1 (stereo not given),,"inconclusive: 44.7 µM [inhibitor, partial curve, poor fit]",
Cc1noc(C)c1[S+](=O)([O-])N1CCCC2(C1)C(=NC1CCCC1)NC(=O)N2c1cc(F)cc(F)c1 (stereo not given),,"inconclusive: 56.2 µM [inhibitor, partial curve, poor fit]",
Cc1cccc(C(=O)N2CCN(C(=O)c3nnn4c3COC(c3ccc(F)cc3)C4)CC2)c1 (stereo not given),,"inconclusive: 89.1 µM [inhibitor, partial curve, poor fit]",
COc1ccc2c(c1)C=C(CN1CCCn3nc(C(C)O)cc3C1)CO2 (stereo not given),,"inconclusive: 89.1 µM [inhibitor, single point]",
O=S(=O)(c1cccc(F)c1)N1CCCC(Cn2c(C3CC3)nc3cccnc32)C1 (stereo not given),,"inconclusive: 79.4 µM [inhibitor, partial curve, poor fit]",
CC(C)N1C(=O)C2(CCCC2)C1C(=O)NCc1ccc(N2CCOCC2)cc1 (stereo not given),,"inconclusive: 79.4 µM [inhibitor, single point]",
C#CCNC(=O)[C@H]1O[C@H](CCN(CCOC)CCOC)CC[C@@H]1O,inactive: -0.271% [at 172 µM],,
COc1ccc(N2CC3CCC(C2)N3Cc2ccc(C#N)cc2)cc1,inactive: -27.9%,,

Structure (SMILES),"activity change, negative = cytotoxicity",Potency,outcome
CC(C)C1=NOC2(CCN(C(=O)c3ccccc3)C2)C1 (stereo not given),inactive: -0.417% [at 172 µM],,
O=C(NCc1ccco1)[C@@H]1Cc2nc[nH]c2CN1CCCc1ccccc1,,"inconclusive: 126 µM [inhibitor, single point]",
COc1cccc(-c2noc(-c3ccc(-c4cn[nH]c4)nc3)n2)c1OC,inactive: -29.5%,,
CSc1cccc(NC(=O)C2CCN(c3cnc4nc(C)c(C)nc4c3)CC2)c1,,"inconclusive: 89.1 µM [inhibitor, partial curve, poor fit]",
COc1ccc(CNC(=O)C[C@@H]2CCNC[C@@H]2Cc2cc(CC3CCCCC3)on2)cc1,,active: 28.2 µM,
Cc1ccc(C(=O)N2CC(Oc3ccc(F)c(F)c3)C2)cc1,,"inconclusive: 112 µM [inhibitor, single point]",
COc1ccc(C(=O)N2[C@@H]3CC[C@H]2CC(NC(=O)c2ccc(F)cc2)C3)c(OC)c1 (stereo not given in full),inactive: -26.6%,,
COC1C(=O)N(c2cccc(F)c2)C12CCN(C(=O)CC1CCN(C(C)=O)CC1)CC2 (stereo not given),inactive: -22.4%,,
COc1ccccc1-n1cnc2cccnc21,,"inconclusive: 70.8 µM [inhibitor, partial curve]",
COc1ccc(N2CCN(c3nc(C(=O)N4CCN(C)CC4)cs3)CC2)cc1,,"inconclusive: 50.1 µM [inhibitor, partial curve, poor fit]",
CCS(=O)(=O)Nc1ccc(C2(C(=O)NCc3ccc4c(c3)OCO4)CCCCC2)cc1,,"inconclusive: 89.1 µM [inhibitor, single point]",
Cc1ccc(-c2nnc(CN3CCC4(CC3)CC(=O)N(CC(C)C)C4)o2)n1C,inactive: -18.2%,,
CC(C)Cn1c(=O)c(C(=O)N2CCN(C(=O)C3CC3)CC2)nc2cccnc21,,,inactive
Cc1ccc(C2Cn3nnc(C(=O)NC4CCN(Cc5ccccc5)CC4)c3CO2)cc1 (stereo not given),,"inconclusive: 10 µM [inhibitor, full curve, poor fit]",
Cc1ccc(Nc2ccnc(N3CCCC3C(=O)NCc3cccs3)n2)cc1 (stereo not given),,"inconclusive: 11.2 µM [inhibitor, full curve, poor fit]",
COCC1CN(C)CC12CCN(C(=O)c1cccc(Br)c1)CC2 (stereo not given),,"inconclusive: 50.1 µM [inhibitor, partial curve, poor fit]",
Cc1cc2nc3n(c(=O)c2n1CC(=O)Nc1ccc(Cl)cc1F)CCCCC3,,"inconclusive: 89.1 µM [inhibitor, single point]",
O=c1c2nc(Nc3cccnc3)ccc2ncn1-c1ccccc1,,"inconclusive: 100 µM [inhibitor, partial curve]",
CCCCSCc1cc(C(=O)N2C[C@H](OCC)[C@@H](O)C2)oc1C,inactive: 2.58%,,
O=C(c1ccc(N2CC3CC(C2)[C@H]2CCCC(=O)N2C3)nc1)N1CCC(Cc2ccccc2)CC1 (stereo not given in full),,"inconclusive: 56.2 µM [inhibitor, partial curve, poor fit]",
